The results in this text go back to the antibiotic and cytotoxicity screens of Wong et al. (2023).

One test has as its system HSkMC. Description: cytotoxicity call (relative viability < 0.9). The note with it: 10 µM.
A further test has as its system HepG2. Description: cytotoxicity call (relative viability < 0.9). The note with it: 10 µM.
The subject of a further test is S. aureus RN4220. Description: growth inhibition call (relative growth <= 0.2). As to conditions: 50 µM.

Some of the results follow.

As to `C[C@H](CO)N1C[C@H](C)[C@@H](CN(C)C(=O)Cc2ccccn2)Oc2cc(C#Cc3ccccc3)ccc2S1(=O)=O`, the cytotoxicity call with HSkMC and in the test on HepG2 was “inactive” each time. Also, the growth inhibition call with S. aureus RN4220 was “inactive”.

On to `CCS(=O)(=O)N1C[C@]2(CN(Cc3cc(ccc3F)F)[C@H](CO)c3c2c2ccc(cc2n3C)OC)C1`, for which the cytotoxicity call in the test on HSkMC and with HepG2 was “inactive” each time. Also, in the test on S. aureus RN4220, the growth inhibition call is “inactive”.

On to `COc1ccc(S(=O)(=O)Nc2cccc3c2O[C@H](CN(C)Cc2ccc(-c4ccccc4)cc2)[C@@H](C)CN([C@H](C)CO)C3=O)cc1`, for which, in the test with HSkMC, the cytotoxicity call is “inactive”. Moreover, in the test on HepG2, the cytotoxicity call is “active”. For the same compound, the growth inhibition call in the test with S. aureus RN4220 is “inactive”.

In the case of `Cc1nonc1CO`, the cytotoxicity call with HSkMC and in the test on HepG2 was “inactive” throughout. Also, the growth inhibition call in the test on S. aureus RN4220 is “inactive”.

As for `O=C(C[C@H]1CC[C@@H](NS(=O)(=O)c2ccccc2F)[C@@H](CO)O1)NCCCN1CCOCC1`, the cytotoxicity call in the test on HSkMC and with HepG2 was “inactive” in each case. In addition, the growth inhibition call with S. aureus RN4220 is “inactive”.

Consider `C[C@H](CO)N1C[C@H](C)[C@@H](CN(C)C(=O)Nc2cccc(Oc3ccccn3)c2)OCc2cn(nn2)CCCC1=O`, for which the cytotoxicity call with HSkMC and with HepG2 was “inactive” in each case. The growth inhibition call with S. aureus RN4220 is “inactive”.

With `O=C(C[C@@H]1CC[C@H]2[C@@H](COC[C@H](O)CN2C(=O)c2ccncc2)O1)NCc1ccc(-c2ccccc2)cc1`, the cytotoxicity call in the test with HSkMC and with HepG2 was “inactive” in each case. The growth inhibition call in the test on S. aureus RN4220 is “inactive”.

As for `C[C@H]1CN([C@@H](C)CO)C(=O)c2cc(NC(=O)CCCN(C)C)ccc2O[C@@H]1CN(C)Cc1ccccc1`, the cytotoxicity call in the test on HSkMC and in the test on HepG2 was “inactive” throughout. The growth inhibition call in the test on S. aureus RN4220 was “inactive”.

Take `COCC(=O)N1C[C@H](C)[C@H](OC)CN(C)C(=O)c2ccc(NC(=O)c3ccc(F)cc3)cc2OC[C@H]1C`: the cytotoxicity call in the test on HSkMC and in the test with HepG2 was “inactive” throughout. In the test with S. aureus RN4220, the growth inhibition call is “inactive”.

On to `Cc1nc2c(C)cccc2c2c1COC2`, for which the cytotoxicity call in the test with HSkMC and in the test with HepG2 was “inactive” throughout. Besides, in the test on S. aureus RN4220, the growth inhibition call was “inactive”.

Consider `CN(C)CC(=O)N[C@H]1CC[C@H](CCn2cc(CN(C)C)nn2)O[C@@H]1CO`, for which the cytotoxicity call in the test on HSkMC and with HepG2 was “inactive” throughout. The growth inhibition call in the test with S. aureus RN4220 was “inactive”.

On to `O=C(C[C@H]1C[C@H]2c3cc(NC(=O)Cc4ccncc4)ccc3O[C@H]2[C@H](CO)O1)NCc1ccc2c(c1)OCO2`, for which the cytotoxicity call in the test with HSkMC and in the test on HepG2 was “inactive” throughout. In the test on S. aureus RN4220, the growth inhibition call was “inactive”.

With `NNC(=O)[C@H]1C[C@H]2C[C@@H]1C[C@@H]2C(=O)NN`, the cytotoxicity call in the test on HSkMC and in the test on HepG2 was “inactive” throughout. Moreover, in the test with S. aureus RN4220, the growth inhibition call was “inactive”.

For `C[C@@H]1CN([C@H](C)CO)C(=O)Cc2cc(NC(=O)CCN3CCOCC3)ccc2O[C@H]1CN(C)S(=O)(=O)c1cccs1`, the cytotoxicity call with HSkMC and in the test on HepG2 was “inactive” throughout. In addition, the growth inhibition call with S. aureus RN4220 was “inactive”.

Take `COCCNC(=O)[C@@H]1[C@@H](CO)[C@@H]2Cn3c(ccc(-c4ccccc4F)c3=O)[C@H]1N2S(C)(=O)=O`: the cytotoxicity call with HSkMC and with HepG2 was “inactive” in each case. For the same compound, in the test on S. aureus RN4220, the growth inhibition call was “inactive”.

For `OCCC[C@@H](O)c1ccc(OCCO)cc1`, the cytotoxicity call in the test on HSkMC and in the test on HepG2 was “inactive” each time. Besides, in the test on S. aureus RN4220, the growth inhibition call is “inactive”.

Regarding `C[C@H](CO)N1C[C@H](C)[C@H](CN(C)Cc2ccc(-c3ccccc3)cc2)Oc2c(NC(=O)C3CC3)cccc2C1=O`, the cytotoxicity call in the test with HSkMC and with HepG2 was “inactive” throughout. Further, in the test with S. aureus RN4220, the growth inhibition call is “inactive”.

Take `C[C@@H]1CN([C@H](C)CO)C(=O)c2cc(C#Cc3cccnc3)cnc2O[C@H]1CN(C)S(C)(=O)=O`: the cytotoxicity call in the test with HSkMC and in the test with HepG2 was “inactive” each time. In the test on S. aureus RN4220, the growth inhibition call is “inactive”.

For the compound `Nc1ncnc2c1ncn2[C@@H]1O[C@H](C[C@@H](N)CC[C@H](N)C(=O)O)[C@@H](O)[C@H]1O`, the cytotoxicity call in the test with HSkMC and in the test with HepG2 was “inactive” throughout. Further, in the test with S. aureus RN4220, the growth inhibition call was “inactive”.

In the case of `CN(C)S(=O)(=O)N1C[C@H]2C[C@H](C(=O)Nc3cccnc3)[C@@H](C1)O2`, the cytotoxicity call with HSkMC and in the test on HepG2 was “inactive” each time. The growth inhibition call in the test on S. aureus RN4220 was “inactive”.

As for `C[C@@H]1CN([C@H](C)CO)C(=O)CCCn2nncc2CO[C@@H]1CN(C)C(=O)Nc1cccc(Oc2ccccn2)c1`, the cytotoxicity call with HSkMC and in the test with HepG2 was “inactive” throughout. Also, in the test on S. aureus RN4220, the growth inhibition call was “inactive”.

For `COc1ccc(S(=O)(=O)N(C)C[C@@H]2Oc3ncc(C#Cc4ccc(OC)c(OC)c4)cc3C(=O)N([C@H](C)CO)C[C@@H]2C)cc1`, in the test on HSkMC (human skeletal muscle cells), the cytotoxicity call is “inactive”. The cytotoxicity call in the test on HepG2 is “active”. Moreover, the growth inhibition call in the test on S. aureus RN4220 was “inactive”.

With `C[C@@H]1CN([C@H](C)CO)C(=O)c2cccc(NC(=O)Nc3cccc4ccccc34)c2O[C@H]1CN(C)S(=O)(=O)c1cccs1`, the cytotoxicity call in the test with HSkMC and in the test on HepG2 was “inactive” throughout. Further, in the test with S. aureus RN4220, the growth inhibition call was “inactive”.

Turning to `COC(=O)C1=CO[C@@H](O[C@@H]2O[C@H](CO)[C@@H](O)[C@H](O)[C@H]2O)[C@H]2[C@@H]1[C@H](O)C[C@]2(C)O`, the cytotoxicity call in the test with HSkMC and in the test on HepG2 was “inactive” throughout. The growth inhibition call with S. aureus RN4220 is “inactive”.

With `CNC(=O)c1c(I)c(C(=O)NCC(=O)Nc2c(I)c(C(=O)O)c(I)c(C(=O)NCCO)c2I)c(I)c(N(C)C(C)=O)c1I`, the cytotoxicity call in the test with HSkMC and with HepG2 was “inactive” throughout. Moreover, in the test on S. aureus RN4220, the growth inhibition call was “inactive”.

Take `COc1ccc(S(=O)(=O)N(C)C[C@H]2Oc3ccc(NC(=O)C4CC4)cc3CC(=O)N([C@H](C)CO)C[C@H]2C)cc1`: the cytotoxicity call with HSkMC and in the test on HepG2 was “inactive” throughout. For the same compound, the growth inhibition call with S. aureus RN4220 is “inactive”.

For `CC(=O)N[C@@H](Cc1ccc(F)cc1)C(=O)O`, the cytotoxicity call with HSkMC and with HepG2 was “inactive” throughout. Besides, in the test with S. aureus RN4220, the growth inhibition call was “inactive”.

For `C[C@H](CO)N1C[C@H](C)[C@H](CN(C)C(=O)Nc2ccc(C(F)(F)F)cc2)OCCCC[C@H](C)Oc2ccc(NC(=O)Nc3ccc4c(c3)OCO4)cc2C1=O`, the cytotoxicity call in the test with HSkMC and in the test with HepG2 was “inactive” each time. For the same compound, the growth inhibition call in the test with S. aureus RN4220 is “inactive”.
